The list shows a part of the results. Sequences were assembled here from the parent chain. Values near 0.05 are background.
B1: TEV protease; numbered along this chain (parent)
chain: MGESLFKGPRDYNPISSSICHLTNESDGHTTSLYGIGFGPFIITNKHLFRRNNGTLVVQSLHGVFKVKDTTTLQQHLVDGRDMIIIRMPKDFPPFPQKLKFREPQREERICLVTTNFQTKSMSSMVSDTSCTFPSGDGIFWKHWIQTKDGQCGSPLVSTRDGFIVGIHSASNFTNTNNYFTSVPKNFMELLTNQEAQQWVSGWRLNADSVLWGGHKVFMVKPEEPFQPVKEATQL

Variants of: B1
Test: raw area under fraction-flipped curve 0-4 h after induction (AUC4h, not background-subtracted), DNA-recorder readout of cleavage of the substrate (dimensionless); higher = more cleavage of the substrate by the protease variant
Details: temperature: 34 °C; time window: 0-4 h after rhamnose induction
Procedure: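 In vivo DNA recorder in E. coli TOP10(DE3) ΔrhaA at 34 °C. Each TEVp single-site mutant (parent TEVp 0) is paired with a single-site variant of the 7-mer TEVs (canonical ENLYFQ|S). The substrate sits between flexible linkers in a Bxb1-sfGFP-TEVs-SsrA fusion, so cleavage stabilises Bxb1 and speeds flipping of a recombination array, read by NGS. The value is the raw area under the fraction-flipped curve over 0-4 h after rhamnose induction (AUC4h), with ≥20 reads per time point. It is not background-subtracted; inactive controls average about 0.047.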
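Note: Bxb1 expression induced with 0.2% (w/v) L-rhamnose at OD600 near 0.5, cultures sampled hourly, flipped fraction per protease–substrate barcode pair counted by paired-end Illumina sequencing.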

Variant | area with substrate ENLAFQS | area with substrate ENLCFQS | area with substrate ENLDFQS | area with substrate ENLFFQS | area with substrate ENLGFQS | area with substrate ENLHFQS | area with substrate ENLKFQS | area with substrate ENLLFQS | area with substrate ENLNFQS | area with substrate ENLQFQS | area with substrate ENLRFQS | area with substrate ENLSFQS | area with substrate ENLTFQS | area with substrate ENLVFQS | area with substrate ENLWFQS | area with substrate ENLIFQS | area with substrate ENLMFQS | area with substrate ENLEFQS | area with substrate ENLPFQS
MGESLFKGPRDYNPISSSICHLTNESDGHTTSLYGIGFGPFIITNKHLFRRNNGTLVVQSLHGVFKVKDTTTLQQHLVDGRDMIIIRMPKDFPPFPQKLKFREPQREERICLVTTNFQTKSMSSMVSDTSCTFPSGDGIFWKHWIQTKDGQCGSPLDSTRDGFIVGIHSASNFTNTNNYFTSVPKNFMELLTNQEAQQWVSGWRLNADSVLWGGHKVFMVKPEEPFQPVKEATQL [V157D] | 0.0369 | 0.0477 | 0.0505 | 0.0635 | 0.053 | 0.0445 | 0.0478 | 0.0606 | 0.0371 | 0.0513 | 0.0428 | 0.0428 | 0.0616 | 0.0461 | 0.0463 | – | – | – | –
MGESLFKGPRDYNPISSSICHLTNESDGHTTSLYGIGFGPFIITNKHLFRRNNGTLVVQSLHGVFKVKDTTTLQQHLVDGRDMIIIRMPKDFPPFPQKLKFREPQREERICLVTTNFQTKSMSSMVSDTSCTFPSGDGIFWKHWIQTKDGQCGSPLLSTRDGFIVGIHSASNFTNTNNYFTSVPKNFMELLTNQEAQQWVSGWRLNADSVLWGGHKVFMVKPEEPFQPVKEATQL [V157L] | 0.0651 | 0.059 | 0.053 | 0.0799 | 0.0526 | 0.0658 | 0.0715 | 0.0661 | 0.06 | 0.0574 | 0.0686 | 0.0508 | – | 0.0752 | – | 0.0736 | 0.0733 | – | –
MGESLFKGPRDYNPISSSICHLTNESDGHTTSLYGIGFGPFIITNKHLFRRNNGTLVVQSLHGVFKVKDTTTLQQHLVDGRDMIIIRMPKDFPPFPQKLKFREPQREERICLVTTNFQTKSMSSMVSDTSCTFPSGDGIFWKHWIQTKDGQCGSPLVSTRAGFIVGIHSASNFTNTNNYFTSVPKNFMELLTNQEAQQWVSGWRLNADSVLWGGHKVFMVKPEEPFQPVKEATQL [D161A] | 0.0648 | 0.0554 | 0.0592 | 0.0665 | – | 0.0609 | 0.0603 | – | 0.0587 | – | 0.0695 | 0.0607 | – | 0.0655 | – | 0.0592 | – | 0.0591 | 0.0504
MGESLFKGPRDYNPISSSICHLTNESDGHTTSLYGIGFGPFIITNKHLFRRNNGTLVVQSLHGVFKVKDTTTLQQHLVDGRDMIIIRMPKDFPPFPQKLKFREPQREERICLVTTNFQTKSMSSMVSDTSCTFPSGDGIFWKHWIQTKDGQCGSPLVSTRWGFIVGIHSASNFTNTNNYFTSVPKNFMELLTNQEAQQWVSGWRLNADSVLWGGHKVFMVKPEEPFQPVKEATQL [D161W] | 0.044 | 0.054 | 0.0483 | 0.0653 | – | 0.051 | 0.0517 | 0.0671 | 0.0484 | 0.0509 | 0.0423 | 0.053 | 0.0319 | 0.0382 | 0.0516 | 0.046 | – | 0.0429 | 0.0536
MGESLFKGPRDYNPISSSICHLTNESDGHTTSLYGIGFGPFIITNKHLFRRNNGTLVVQSLHGVFKVKDTTTLQQHLVDGRDMIIIRMPKDFPPFPQKLKFREPQREERICLVTTNFQTKSMSSMVSDTSCTFPSGDGIFWKHWIQTKDGQCGSPLVSTRDGFIVDIHSASNFTNTNNYFTSVPKNFMELLTNQEAQQWVSGWRLNADSVLWGGHKVFMVKPEEPFQPVKEATQL [G166D] | 0.0523 | 0.0638 | 0.052 | 0.0458 | – | 0.0429 | 0.0542 | – | 0.0512 | 0.0404 | 0.0544 | 0.0273 | – | 0.0513 | 0.0411 | – | 0.0811 | 0.0703 | 0.0501
MGESLFKGPRDYNPISSSICHLTNESDGHTTSLYGIGFGPFIITNKHLFRRNNGTLVVQSLHGVFKVKDTTTLQQHLVDGRDMIIIRMPKDFPPFPQKLKFREPQREERICLVTTNFQTKSMSSMVSDTSCTFPSGDGIFWKHWIQTKDGQCGSPLVSTRDGFIVGIHMASNFTNTNNYFTSVPKNFMELLTNQEAQQWVSGWRLNADSVLWGGHKVFMVKPEEPFQPVKEATQL [S169M] | 0.0693 | 0.0605 | 0.0621 | 0.0684 | 0.0924 | 0.0653 | 0.0706 | 0.0708 | 0.0689 | 0.0571 | 0.0678 | 0.0634 | 0.0642 | 0.0623 | – | 0.0629 | – | 0.0645 | 0.056
MGESLFKGPRDYNPISSSICHLTNESDGHTTSLYGIGFGPFIITNKHLFRRNNGTLVVQSLHGVFKVKDTTTLQQHLVDGRDMIIIRMPKDFPPFPQKLKFREPQREERICLVTTNFQTKSMSSMVSDTSCTFPSGDGIFWKHWIQTKDGQCGSPLVSTRDGFIVGIHSAFNFTNTNNYFTSVPKNFMELLTNQEAQQWVSGWRLNADSVLWGGHKVFMVKPEEPFQPVKEATQL [S171F] | 0.0621 | 0.0595 | 0.0615 | 0.0572 | 0.105 | 0.0602 | 0.0641 | 0.0478 | 0.051 | – | – | – | – | – | – | – | 0.0856 | – | 0.0503
MGESLFKGPRDYNPISSSICHLTNESDGHTTSLYGIGFGPFIITNKHLFRRNNGTLVVQSLHGVFKVKDTTTLQQHLVDGRDMIIIRMPKDFPPFPQKLKFREPQREERICLVTTNFQTKSMSSMVSDTSCTFPSGDGIFWKHWIQTKDGQCGSPLVSTRDGFIVGIHSALNFTNTNNYFTSVPKNFMELLTNQEAQQWVSGWRLNADSVLWGGHKVFMVKPEEPFQPVKEATQL [S171L] | 0.0616 | – | 0.0695 | 0.06 | – | 0.0489 | 0.0598 | – | 0.0623 | 0.0579 | 0.0528 | – | – | – | – | 0.0601 | – | 0.0708 | 0.0491
MGESLFKGPRDYNPISSSICHLTNESDGHTTSLYGIGFGPFIITNKHLFRRNNGTLVVQSLHGVFKVKDTTTLQQHLVDGRDMIIIRMPKDFPPFPQKLKFREPQREERICLVTTNFQTKSMSSMVSDTSCTFPSGDGIFWKHWIQTKDGQCGSPLVSTRDGFIVGIHSAMNFTNTNNYFTSVPKNFMELLTNQEAQQWVSGWRLNADSVLWGGHKVFMVKPEEPFQPVKEATQL [S171M] | 0.0771 | – | – | 0.0455 | – | 0.0527 | 0.0695 | 0.0612 | 0.0485 | 0.0479 | 0.0567 | 0.0793 | 0.0716 | 0.0825 | 0.067 | 0.0638 | 0.0674 | – | –

Source: the supplement of paper PMC12217912
